In publication PMC6919601, “Identification of Plasmodium dipeptidyl aminopeptidase allosteric inhibitors by high throughput screening” (PLoS ONE, 2019):
The whole screen tested about 110,000 compounds, of which about 230 (0.21%) showed an effect of 50% or more. Some of the results follow.

These compounds were tested against DPAP1 (Plasmodium falciparum, UniProt Q8IIJ9) (assay: primary screen, percent inhibition; read by cleavage of a fluorogenic dipeptide substrate; higher = more effect of the substance).
Set-up: species or system P. falciparum D10 trophozoite lysates; single well
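Also: 30 min substrate incubation versus DMSO and 10 µM JCP410 controls.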

Sequence of DPAP1 (Q8IIJ9 whole entry, looked up): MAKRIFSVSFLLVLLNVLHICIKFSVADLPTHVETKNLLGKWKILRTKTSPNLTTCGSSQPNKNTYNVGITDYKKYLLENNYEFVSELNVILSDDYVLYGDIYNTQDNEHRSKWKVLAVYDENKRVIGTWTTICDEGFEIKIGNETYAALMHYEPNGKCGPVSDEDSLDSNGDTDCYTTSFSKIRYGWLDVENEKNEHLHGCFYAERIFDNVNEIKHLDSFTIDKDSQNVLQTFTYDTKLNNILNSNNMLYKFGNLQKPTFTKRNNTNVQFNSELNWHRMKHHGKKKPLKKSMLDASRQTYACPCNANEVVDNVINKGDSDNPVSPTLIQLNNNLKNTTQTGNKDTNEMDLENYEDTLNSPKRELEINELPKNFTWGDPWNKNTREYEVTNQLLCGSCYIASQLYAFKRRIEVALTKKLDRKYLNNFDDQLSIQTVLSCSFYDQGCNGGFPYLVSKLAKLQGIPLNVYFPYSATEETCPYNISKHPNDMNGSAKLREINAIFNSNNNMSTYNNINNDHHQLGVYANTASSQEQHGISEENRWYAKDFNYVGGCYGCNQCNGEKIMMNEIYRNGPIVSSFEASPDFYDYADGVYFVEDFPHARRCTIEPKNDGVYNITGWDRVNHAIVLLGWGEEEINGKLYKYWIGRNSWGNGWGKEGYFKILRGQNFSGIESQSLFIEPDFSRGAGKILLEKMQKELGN

Going from `Cn1cc(/C=C2/CCC/C(=C\c3cnn(C)c3)C2=O)cn1` to `O=C(Cn1nnc2sc3c(c2c1=O)CCCC3)c1cccs1`, the “% Inhibition @ 10 uM” value rises from -2.9% to 5.54%.

Compared with `COc1ccc(CNC(=O)Cn2ncn3nc(-c4ccc(OC)cc4)cc3c2=O)cc1`, `COc1ccc(-c2ccc(-c3noc(-c4ccc(OC)c(OC)c4)n3)c(OC)n2)cc1` is higher in “% Inhibition @ 10 uM” value: -3.08% for the first, 0.415% for the second.

First: CCc1ccc(-n2nc(C)c3c(C(=O)O)cc(C)nc32)cc1
Second: Cc1cc(=O)n2nc(N(C)CC(=O)NCc3ccc(F)cc3)sc2n1
The “% Inhibition @ 10 uM” value of the first is lower: 3.1% for the first, 6.06% for the second.

First: c1ccc(COc2ccccc2CNCc2cccnc2)cc1
Second: O=C1c2[nH]nc(-c3ccccc3O)c2C(c2cccc(O)c2)N1CCc1ccccc1 (centres unmarked)
The “% Inhibition @ 10 uM” value of the first is lower: -4.52% for the first, 3.62% for the second.

First: O=S(=O)(NCc1cccnc1)c1ccc2[nH]c3c(c2c1)CCCC3
Second: Cc1ccc(CN2CCN(CC(=O)NCc3cccnc3)C2=O)cc1
The “% Inhibition @ 10 uM” value of the first is lower: -6.17% for the first, 0.0931% for the second.

First: Cc1c(O)c(S(=O)c2ccccc2)c(=O)n(-c2ccccc2)c1-c1ccccc1 (centres unmarked)
Second: Cc1nn(-c2ccccc2Cl)c(N)c1-c1ccccc1
The “% Inhibition @ 10 uM” value of the first is lower: -3.77% for the first, -2.19% for the second.

First: CN(C)CCN(C)Cc1ccc(-c2ccccc2)cc1
Second: N#CC1=C(N)Oc2cc(O)ccc2C1c1ccc(-c2ccccc2)cc1 (centres unmarked)
The “% Inhibition @ 10 uM” value of the first is lower: -4.3% for the first, -0.197% for the second.

Compared with `COc1cccc(CNC(=O)CN2C(=O)CSc3ncccc32)c1OC`, `COc1cccc(CNCc2ccccc2C(F)(F)F)c1OC` is higher in “% Inhibition @ 10 uM” value: -5.38% for the first, 2.22% for the second.

First: COc1cccc(C(=O)N2c3ccccc3Sc3ccccc32)c1
Second: COc1ccccc1N1CCN(C(=O)CN(c2ccccc2C)S(=O)(=O)c2ccc(C)cc2)CC1
The “% Inhibition @ 10 uM” value of the first is lower: -4.21% for the first, 2.37% for the second.

Compared with `CCCc1ccc(OCC(O)CN2CCN(CC)CC2)cc1` (centres unmarked), `Clc1ccc(OCCCCCN2CCOCC2)cc1` is lower in “% Inhibition @ 10 uM” value: 3.9% for the first, 3% for the second.

First: COC(=O)c1cc2sc(C)cc2n1Cc1nc(-c2ccc(OC)c(OC)c2)oc1C
Second: COc1ccc(C(=O)c2sc3nc4c(c(-c5cccnc5)c3c2N)CCC4)cc1OC
The “% Inhibition @ 10 uM” value of the first is lower: -8.57% for the first, 17.2% for the second.

Going from `CC1=NN(c2ccccc2)C(=O)/C1=C\c1cccc([N+](=O)[O-])c1` to `CC(C)c1ccc(/C=C2N=C(/C=C/c3ccccc3)OC/2=O)cc1`, the “% Inhibition @ 10 uM” value falls from -0.999% to -2.18%.

Going from `CCOc1cc(S(=O)(=O)NC2CC(C)(C)NC(C)(C)C2)ccc1Cl` to `CCOc1ccc(CCNC(=O)CN2N=C(c3ccc(Cl)cc3)CCC2=O)cc1OCC`, the “% Inhibition @ 10 uM” value falls from 0.889% to 0.514%.

Going from `O=C(C1c2ccccc2C(=O)N(C2CCCC2)C1c1cccs1)N1CCC(N2CCCCC2)CC1` (centres unmarked) to `CCOC(=O)N1CCC(NC(=O)C2c3ccccc3C(=O)N(CC(C)C)C2c2cccs2)CC1` (centres unmarked), the “% Inhibition @ 10 uM” value falls from 2.78% to 1.69%.

First: Cc1ccc(C(=O)C2=C(O)C(=O)N(c3nccs3)C2c2ccc(Cl)cc2)cc1 (centres unmarked)
Second: CN(C)CCN1C(=O)C(O)=C(C(=O)c2cc3ccccc3o2)C1c1ccc(OCc2ccccc2)cc1 (centres unmarked)
The “% Inhibition @ 10 uM” value of the first is higher: 1.67% for the first, -3.13% for the second.

First: Cc1ccc2c(c1)c1c(n2CC(O)CNCc2ccccc2)C(=O)CCC1 (centres unmarked)
Second: COc1cc(C)nc(NCc2ccccc2)n1
The “% Inhibition @ 10 uM” value of the first is higher: 1.96% for the first, -3.06% for the second.

First: CC1=C(C(=O)Nc2ccccc2C)C(c2ccc(F)cc2)NC(=O)N1 (centres unmarked)
Second: Cc1c(-c2nsc(NC(=O)c3cccc(F)c3)n2)nnn1-c1ccc(C(C)C)cc1
The “% Inhibition @ 10 uM” value of the first is lower: -1.22% for the first, 2.14% for the second.

First: CCC/N=C/c1sc2ccc(OCC)cc2c1O
Second: CCOc1ccc(CNC(=O)c2cc3occc3n2C)cc1
The “% Inhibition @ 10 uM” value of the first is higher: 2.01% for the first, 1.72% for the second.

First: O=S(=O)(CCc1nc2ccccc2[nH]1)c1ccc(Br)cc1
Second: Cc1onc(-c2ccccc2Cl)c1C(=O)NCCc1nc2ccccc2[nH]1
The “% Inhibition @ 10 uM” value of the first is lower: -1.49% for the first, -0.0678% for the second.

First: COc1ccc(-c2ccc(C3C(C#N)=C(N)Oc4[nH]nc(C)c43)o2)cc1 (centres unmarked)
Second: Cc1ccc(C2C(C#N)=C(N)OC3=C2C(=O)c2ccccc23)s1 (centres unmarked)
The “% Inhibition @ 10 uM” value of the first is higher: 3.91% for the first, -4.77% for the second.

Going from `CCCOc1ccc(-c2nc(CN3CCC(C(=O)NCCC(C)C)CC3)c(C)o2)cc1` to `Cc1oc(-c2cccs2)nc1CN1CCCC(C(=O)NC2CCCCCC2)C1` (centres unmarked), the “% Inhibition @ 10 uM” value falls from 1.56% to -1.05%.

First: C/N=C1\SC(CC(=O)Nc2ccc(OC(F)F)cc2)C(=O)N1C (centres unmarked)
Second: CC(C)CCNC(=O)Nc1cn(C)c(=O)c2ccccc12
The “% Inhibition @ 10 uM” value of the first is lower: -0.478% for the first, 6.77% for the second.

Going from `Cc1nn(CC(=O)N2CCC(C)CC2)c(=O)c2nn(-c3ccccc3)c(C)c12` to `CC1CCN(C(=O)c2ccc3snnc3c2)CC1`, the “% Inhibition @ 10 uM” value rises from -2.49% to -0.0235%.

Compared with `COc1ccccc1CNC(=O)c1csc2c1CCCC2`, `COc1ccc(C(=O)/C=C/c2ccccc2C)c(OC)c1` is higher in “% Inhibition @ 10 uM” value: -3.21% for the first, 0.255% for the second.

First: CC(C)Oc1c(-c2ccccc2)c(=O)c1=O
Second: COC(=O)c1sc2nc(N)c(C#N)c(-c3ccccc3)c2c1N
The “% Inhibition @ 10 uM” value of the first is higher: 2.76% for the first, -1.05% for the second.

First: COC(=O)C1=CN(Cc2cccs2)C=C(C(=O)OC)C1c1cccc(OC)c1
Second: O=C1c2ccsc2OC1c1cccc2ccccc12 (centres unmarked)
The “% Inhibition @ 10 uM” value of the first is higher: -3.28% for the first, -9.29% for the second.

First: C/C(Cl)=C/CSc1nn2c(=O)c3ccccc3nc2s1
Second: COc1ccccc1/C=C/C=c1\sc2nc(-c3ccc(Cl)cc3)nn2c1=O
The “% Inhibition @ 10 uM” value of the first is higher: 5.83% for the first, 0.222% for the second.

First: CCSc1nnc(NC(=O)C2CCCN(S(=O)(=O)c3c[nH]cn3)C2)s1 (centres unmarked)
Second: CCOc1cc(C2C3=C(O)CCCC3=NC(C)=C2C(=O)N2CCCCC2)cc(Br)c1O (centres unmarked)
The “% Inhibition @ 10 uM” value of the first is higher: 2.93% for the first, -2.47% for the second.

Compared with `Cc1cc(-c2[nH]nc3c2C2(C(=O)Nc4ccccc42)C(C#N)=C(N)O3)c(C)s1` (centres unmarked), `CCc1ccc(C2C(C#N)=C(N)Oc3cc(N)ccc32)cc1` (centres unmarked) is higher in “% Inhibition @ 10 uM” value: -0.736% for the first, 0.777% for the second.

Going from `COCCCNC(=O)c1noc2c1COc1ccccc1-2` to `CN(CCNC(=O)c1ccc(CS(=O)(=O)Cc2ccc(Cl)cc2)o1)CCc1ccccc1`, the “% Inhibition @ 10 uM” value falls from 84.2% to 5.47%.

Compared with `CCC(C)O/C(O)=C1/C(C)=NC2=C(C(=O)CC(c3ccc(OC)cc3)C2)C1c1ccc(O)cc1` (centres unmarked), `N#CC1(NC(=O)[C@H](Cc2c(F)cccc2F)NC(=O)c2ccc(-c3ccccc3Cl)c(Cl)c2)CCSCC1` is lower in “% Inhibition @ 10 uM” value: 6.51% for the first, -3.48% for the second.
